# PubChem BioAssay AID686979 (National Center for Advancing Translational Sciences (NCATS), 2013)
# Hit rate of the full screen: of about 420,000 compounds, about 50,000 (12%) were called active. Inconclusive means that the source gave no clear call. Such entries were picked first, then a sample of the others. Calls follow the shape of the dose curve; as a rule, active = well fitted inhibition curve with a large enough effect; inconclusive = small, poorly fitted or top-dose-only effect; inactive = flat fitted curve, though single readings scatter. Potencies of inconclusive entries are left out as doubtful fits.
# Experiment: qHTS for Inhibitors of human tyrosyl-DNA phosphodiesterase 1 (TDP1): qHTS in cells in presence of CPT; also: nearly all actives have a fitted effect of over 55% in size
# Conditions: chicken DT40 Tdp1-/-;hTDP1 cells + 20 nM CPT, ATP luminescence, 48 h; activity change, negative = growth inhibition: at 46.2 µM (top of the series) unless noted
# Summary of the method: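 Chicken DT40 Tdp1-/- cells complemented with human TDP1, 400 cells/well, exposed to compounds plus 20 nM camptothecin for at least 48 h at 37 C; viability read as ATP content by CellTiter-Glo luminescence.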
# % is scaled to controls: 0 for no effect and ±100 for the full control effect; potency is read from the fitted curve at half-maximal effect; tags tell the direction and shape of the fitted curve.
Structure (SMILES),"activity change, negative = growth inhibition",Potency
CCOC(=O)C1(CCOC)CCN(Cc2nc(-c3cccs3)oc2C)CC1,inconclusive: -31.7% [inhibitor],–
O=C(Cc1cccc(NC(=O)C2CCN(C(=O)CCc3ccccc3)CC2)c1)Nc1cccc(C(=O)N2CCCCC2)c1,–,"inconclusive [inhibitor, single point]"
O=C(CCCN1C(=O)/C(=C/c2cccs2)SC1=S)Nc1cc([N+](=O)[O-])ccc1O,–,inactive
Cc1ccc2c(c1)[C@H]1OCC[C@H]1[C@@H](c1ccncc1)N2,–,"inconclusive [inhibitor, single point]"
O=C(CSc1ccc(Cl)cc1)Nc1ccc(N2CCN(C(=O)c3ccco3)CC2)cc1,–,"inconclusive [inhibitor, single point]"
Cc1ccc(NC(=O)c2ccc(NC(=O)N3CCSc4ncccc43)cc2)c(Cl)c1,–,"inconclusive [inhibitor, full curve]"
O=C1C(N2CCOCC2)=C(n2nnc3ccccc32)C(=O)c2ccccc21,–,active: 2.31 µM
Cc1ccc(S(=O)(=O)NC2OC(=O)C(Cl)=C2Cl)cc1 (configuration not stated),–,"inconclusive [inhibitor, single point]"
Cc1oc2cc(OC(C)C(=O)O)ccc2c(=O)c1Oc1ccccc1 (configuration not stated),–,inactive
OC(c1cccc(Cl)c1)c1nc(-c2ccc(F)c(Cl)c2)cs1 (configuration not stated),–,"inconclusive [inhibitor, single point]"
CCOC(=O)c1scc(-c2ccccc2)c1S(=O)(=O)N1CCN(c2ccc(Cl)cc2)CC1,–,"inconclusive [inhibitor, partial curve]"
O=C(C1=C[C@@H](c2ccc3c(c2)OCO3)C[C@@H](OCCCCO)O1)N1CCN(Cc2ccc3c(c2)OCO3)CC1,–,"inconclusive [inhibitor, single point]"
CC12CCC(C(=O)Nc3ccncc3)(CC1O)C2(C)C (configuration not stated),–,inactive
OC[C@H]1O[C@H](OC[C@H]2OC(O)[C@H](O)[C@@H](O)[C@@H]2O)[C@H](O)[C@@H](O)[C@@H]1O (some centres not stated),–,inactive
CCOc1ccc(CCNC(=O)c2ccc(C)c(N3CCCC3=O)c2)cc1OCC,–,inactive
CC1CCN(C(=O)Cn2c(=O)n(Cc3ccc4c(c3)OCO4)c(=O)c3ccccc32)CC1,–,"inconclusive [inhibitor, partial curve]"
CC(=O)c1cccc(NC(=O)c2cccc(S(=O)(=O)N(C)C)c2)c1,–,inactive
Cc1ccc(S(=O)(=O)N2[C@H](CC(=O)Oc3ccccc3)OC[C@@H]2C(C)C)cc1,–,active: 13 µM
CCOc1cc(/C=N/NC(=O)c2nn(C)cc2Br)ccc1OCc1ccccc1Cl,–,active: 20.6 µM
CCCCNC(=O)c1ccc2c(c1)N(CC)C(=O)c1ccccc1S2(=O)=O,–,"inconclusive [inhibitor, single point]"
COc1cccc(N2CCN(C(=O)c3cnc4c(-c5ccccc5)c(C)nn4c3C)CC2)c1,–,active: 14.6 µM
O=C(C[N+]12CN3CN(CN(C3)C1)C2)c1ccc(Br)cc1,–,"inconclusive [inhibitor, single point]"
Cc1nc2ccccc2c(=O)n1NC(=O)c1ccc(Cl)c([N+](=O)[O-])c1,–,inactive
COc1cccc(CN2C(=O)c3ccccc3Sc3ccc(C(=O)NCc4ccccc4)cc32)c1,–,inactive

Structure (SMILES),"activity change, negative = growth inhibition",Potency
Nc1ccn(C2OC(CO)C(O)C2F)c(=O)n1 (configuration not stated),–,active: 1.3 µM
COc1ccc(F)cc1S(=O)(=O)Nc1cc2c3c(c1)CC(=O)N3CCC2,–,"inconclusive [inhibitor, single point]"
CCCNC(=O)NC1C(NC(=O)NCCC)N(C)C(=O)N1C (configuration not stated),–,inactive
C/C(N)=C(/C#N)C(=O)CSc1nnc(Nc2cccc(C)c2)s1,–,"inconclusive [inhibitor, partial curve]"
COc1ccc(CNC(=O)C(NS(=O)(=O)c2cccc3nsnc23)C(C)C)cc1 (configuration not stated),–,inactive
Cc1cc(OCC(O)CN2CCN(c3ccccn3)CC2)cc(C)c1Cl (configuration not stated),–,"inconclusive [inhibitor, single point]"
COc1ccc(-c2cc(=O)oc3cc(OCC(=O)NCc4ccccn4)ccc23)cc1,–,"inconclusive [inhibitor, single point]"
CC(=O)NC(c1cccc(F)c1)c1nc(-c2cccc(C(F)(F)F)c2)cs1 (configuration not stated),–,"inconclusive [inhibitor, single point]"
CN(Cc1ccccc1)C(=O)COc1ccc(C(C)(C)C)cc1,–,"inconclusive [inhibitor, partial curve]"
Fc1ccccc1Nc1c2c(nc3ccccc13)CCC2,–,"inconclusive [inhibitor, single point]"
CCc1nnc(NC(=O)CCC(=O)NC2CCCCCCC2)s1,–,inactive
CC(C)c1ccc(CC(=O)N2CCC2(C)C(=O)Nc2cnc3ccccc3c2)cc1 (configuration not stated),–,active: 16.4 µM
CCN1CCN(c2c(/C=C3\SC(=S)N(Cc4ccco4)C3=O)c(C)c(C#N)c(=O)n2C)CC1,–,"inconclusive [inhibitor, single point]"
Cc1cc(NC(=O)c2cncc(Br)c2)ccc1NC(=O)c1cc2ccccc2o1,–,active: 13 µM
CCN(Cc1ccncc1)S(=O)(=O)c1ccc(C(C)=O)cc1,–,active: 16.4 µM
COc1ccc(OC)c2c(C)cc(N3CCN(C(=O)c4ccc(F)cc4)CC3)nc12,–,"inconclusive [inhibitor, single point]"
O=C1CSC(=S)N1N=Cc1c[nH]c2ccc(Br)cc12,–,"inconclusive [inhibitor, single point]"
COc1ccc(N2CCN(S(=O)(=O)c3ccc4c(c3)NC(=O)C(C)C(=O)N4)CC2)cc1 (configuration not stated),–,"inconclusive [inhibitor, single point]"
CCCCN(CCCC)CC(O)COc1ccccc1Br (configuration not stated),–,"inconclusive [inhibitor, single point]"
Clc1nc2ccccc2cc1/C=N/Nc1nc2ccccc2[nH]1,–,"inconclusive [inhibitor, single point]"
N#Cc1ccc(S(=O)(=O)N2CCN(Cc3cccs3)CC2)cc1,–,"inconclusive [inhibitor, partial curve]"
COCCN(C(=S)Nc1ccccc1OC)C1CCN(C(C)C)CC1,–,inactive
Cn1c(=O)[nH]c(=O)c2c1nc(N1CCCCC1)n2CC(O)COc1ccc([N+](=O)[O-])cc1 (configuration not stated),–,"inconclusive [inhibitor, single point]"
O=C1CC(C(=O)O)C2(CCCC2)O1 (configuration not stated),–,inactive

Structure (SMILES),"activity change, negative = growth inhibition",Potency
O=C(N/N=C/c1ccc(F)cc1)c1cccc(NC(=O)c2ccccc2Cl)c1,–,"inconclusive [inhibitor, single point]"
CCc1oc(C(=O)OC)cc1CSC(=N)N,–,"inconclusive [inhibitor, single point]"
CC(=O)N(C)N1c2ccccc2CCc2ccccc21,–,"inconclusive [inhibitor, single point]"
CCCCSc1nc2sc3c(c2c(=O)[nH]1)CC(C)(CC)OC3 (configuration not stated),–,inactive
CC12CCC(=O)C=C1CCC1C3CC(O)C(O)(C(=O)CO)C3(C)CC(O)C12F (configuration not stated),–,inactive
[O-][n+]1c2ccccc2[n+]([O-])c2cc(O)ccc21,–,active: 9.2 µM
O=c1c2ccccc2nc2n1C1(CCCCC1)Cc1ccccc1-2,–,active: 16.4 µM
CCc1nn2c(NCCOC)cc(C)nc2c1-c1ccc(F)cc1,–,"inconclusive [inhibitor, partial curve]"
O=S(=O)(Nc1cc(Cl)ccc1-n1cncn1)c1ccc(F)cc1,–,"inconclusive [inhibitor, single point]"
O=C(COc1ccccc1)Nc1cc(C(F)(F)F)ccc1N1CCCC1,–,"inconclusive [inhibitor, single point]"
CC(O)CNCCNCc1c(OCc2ccccc2)ccc2ccccc12 (configuration not stated),–,active: 16.4 µM
COc1ccc(-c2ccc(NS(=O)(=O)c3ccc(NC(C)=O)cc3)cc2)nn1,–,"inconclusive [inhibitor, single point]"
COc1ccc(OC)c(NC(=O)c2c(NCc3cccs3)sc3c2CCCCC3)c1,–,active: 23.1 µM
COc1ccccc1C(=O)NC(CCSC)C(=O)NNC(=O)c1ccccc1O (configuration not stated),–,"inconclusive [inhibitor, single point]"
Fc1cccc(F)c1[B-](F)(F)F,–,"inconclusive [inhibitor, single point]"
O=C(CSc1nnc(-c2ccccn2)n1Cc1ccco1)c1ccc(-c2ccccc2)cc1,–,active: 29.1 µM
COc1ccc(CNC(=O)C2CCN(S(=O)(=O)c3cccnc3)CC2)cc1,–,inactive
O=c1oc(=S)oc2c1[C@H](c1ccc(Cl)cc1)O[C@H](C1CCCC1)C2,–,"inconclusive [inhibitor, single point]"
CCOc1ccccc1N1CC(C(=O)N(CC)CC(=O)Nc2ccc3c(c2)OCCO3)CC1=O (configuration not stated),–,"inconclusive [inhibitor, single point]"
CCc1ccccc1NC(=O)CN(C)S(=O)(=O)c1cccc2nsnc12,–,"inconclusive [inhibitor, single point]"
Clc1ccc(-c2csc(N3CCc4ccccc4C3)n2)cc1,–,inactive
C=CCNc1nc(Nc2ccc([N+](=O)[O-])cc2)nc(N2CCCC2)n1,–,active: 14.6 µM
O=C1CSc2ccc(C(=O)Nc3cccc(S(=O)(=O)Nc4ccc(Br)cc4)c3)cc2N1,–,active: 18.4 µM
COc1ccc(-c2cc(C(=O)NCc3cccc(C(F)(F)F)c3)[nH]n2)c(C)c1,–,active: 25.9 µM
